In PubChem BioAssay AID463173 (ICCB-Longwood Screening Facility, Harvard Medical School, 2010):
The whole screen tested about 52,000 compounds, of which about 4,300 (8.3%) were called active. Rule as the data show it: active = survival mostly below about 52% (no sharp cut-off); inactive = mostly above about 56%. The list shows a part of the results.

Tested on: DeltatarO mutant
Assay: growth inhibition of S. aureus wild type versus tarO mutant, primary screen, teichoic acid synthesis inhibitors, RN4220, OD600 (AID 463173)
Conditions: OD600, 18 h, hits give low values, screened at 18.75 µg/mL (by protocol)

SMILES	survival
Cc1cc(C)cc(NC(=O)CSc2oc(-c3cccs3)nc2S(=O)(=O)c2ccc(Br)cc2)c1	inactive: 79%
COC(=O)c1sc2cccc(F)c2c1S(=O)(=O)NC(C)c1ccccc1 (stereo unspecified)	inactive: 55%
CCOC(=O)C1CCN(c2nc3c(S(=O)(=O)c4ccc(CC)cc4)nnn3c3ccc(Cl)cc23)CC1	inactive: 101%
Cc1cccn2c(=O)c3cc(C(=O)NC(C)(C)C)n(C)c3nc12	inactive: 61%
CC(=O)c1ccc(NC(=O)C2CCCN(S(=O)(=O)c3ccc(Br)s3)C2)cc1 (stereo unspecified)	inactive: 120%
CCOc1ccc(NC(=O)c2sc3nc4n(c(=O)c3c2C)CCCC4)cc1	inactive: 57%
Cc1cc(Cl)ccc1NC(=O)CS(=O)(=O)c1cccc2nsnc12	inactive: 125%
O=C(NC(=S)NCc1ccccc1)c1ccco1	inactive: 71%
CCSc1ncc(Cl)c(C(=O)Nc2ccc(S(=O)(=O)N3CCCCC3CC)cc2)n1 (stereo unspecified)	inactive: 82%
CCOc1ccc(NC(c2ccc(Cl)cc2)c2nnc(-c3cccc(F)c3)o2)cc1 (stereo unspecified)	inactive: 90%
Cc1ccc(CN(C(=O)COc2cccc(Cl)c2)c2ccccn2)o1	inactive: 67%
O=C1O/C(=C/C(=O)N2CCOCC2)c2ccccc21	inactive: 97%
COc1cc(O)ccc1-c1nc2ccc(Br)cn2c1Nc1ccccc1C	active: 46%
CCCNC(=O)c1cccc(C)c1	inactive: 58%
O=C(Nc1ccccc1F)C(c1ccccc1)N1Cc2ccccc2C1=O (stereo unspecified)	inactive: 72%
O=C(CSc1nccn1Cc1ccc(F)cc1)NC1CCCC1	inactive: 98%
COc1ccc(NC(=O)C2(S(=O)(=O)c3ccc(C)cc3)CC2)c(OC)c1	inactive: 96%
CCOC(=O)C1CCN(C(=O)c2ccc3c(=O)n4nc(Nc5ccccc5)sc4nc3c2)CC1	inactive: 117%
COc1ccc(-c2c(C)c3ccc(O)c(CN4CCCCC4C)c3oc2=O)cc1OC (stereo unspecified)	inactive: 71%
O=C(NC1CC(=O)N(c2cccc(F)c2)C1)c1ccc(S(=O)(=O)N2CCCCC2)cc1 (stereo unspecified)	inactive: 91%
COc1ccc(OC)c(-n2nnc(-c3nc(-c4ccc5c(c4)OCO5)no3)c2C)c1	inactive: 75%
COC(=O)c1ccccc1NC(=O)CCn1c(=O)c2cccn2c2cccnc21	inactive: 80%
Cc1ccc(OCC(=O)Nc2nnc(SCc3cc(=O)n4cc(C)ccc4n3)s2)cc1	active: 6%

SMILES	survival
COc1ccc(C(=O)Nc2cc(-c3nc4ncccc4o3)ccc2C)cc1Br	active: 40%
CCCOc1ccccc1C(=O)N1CCCCC1CCN1CCCCC1 (stereo unspecified)	inactive: 89%
CCC(=O)N1c2ccccc2CC1C(=O)NCCc1ccccc1OC (stereo unspecified)	inactive: 123%
CCc1ccc(-n2nc(C)c3c(C(=O)Nc4ccc(Cl)cc4)cc(C)nc32)cc1	inactive: 66%
CCCCNC(=O)CSc1nc(-c2ccc(OC)cc2)cc(C(F)(F)F)n1	inactive: 66%
Cc1ccc(C)c(-c2ccc(=O)n(C(C)C(=O)Nc3ccccc3C(F)(F)F)n2)c1 (stereo unspecified)	active: 41%
COc1cccc(-n2ccnc2SCC(=O)Nc2nc3ccc(C)cc3s2)c1	inactive: 116%
CC(=O)Nc1c(C)nn(-c2ccccc2)c1N1CCC(C(=O)Nc2ccc(C)cc2Cl)CC1	inactive: 72%
CCOC(=O)C1CCCN(C(=O)c2ccc(C)c(NC(=O)c3nsc4ccccc34)c2)C1 (stereo unspecified)	inactive: 119%
COc1cccc(NC(=O)CSc2nnc3[nH]c(=O)cc(-c4ccccc4)n23)c1	inactive: 107%
CCCc1nc2nc(C)c(NS(=O)(=O)c3ccc(C)c(C)c3)c(=O)n2[nH]1	inactive: 129%
CCc1ccc(NS(=O)(=O)c2cc(Br)cc3c2N(C(C)=O)CC3)cc1	inactive: 53%
CC(=O)Nc1ccc(NC(=O)c2ccc3c(c2)CCN3S(=O)(=O)c2ccc(Cl)cc2)cc1	inactive: 113%
COc1ccc(OCc2nc(-c3ccc(OC)c(OC)c3)no2)cc1	inactive: 61%
CC(=O)Nc1ccc(C)cc1-c1nc2ccccc2n(Cc2cccc(Br)c2)c1=O	inactive: 69%
CCN(CC)S(=O)(=O)c1cccc(C(=O)Nc2ccccc2)c1	inactive: 102%
Cc1ccccc1-c1nnc(SCC(=O)N2CCCc3ccccc32)o1	active: 9%
COc1ccc(N2CCN(C(=O)c3c(C)oc4nc(C)nc(N5CCCC5)c34)CC2)cc1	inactive: 94%
Cc1ccc(N(C)S(=O)(=O)c2c(-c3ccccc3)csc2C(=O)O)cc1	inactive: 59%
CCCCCn1c(Br)nc2c1c(=O)n(CC(N)=O)c(=O)n2C	inactive: 80%
Cc1cccc(OCc2nnc(SC(C)C(=O)O)n2Cc2ccccc2)c1 (stereo unspecified)	inactive: 103%
Cc1cc2nc(-c3cccc(NC(=O)COc4ccc(C(C)C)cc4)c3)oc2cc1C	inactive: 50%
COc1ccc(Cl)cc1NC(=O)c1cc2ccccn2n1	inactive: 124%

SMILES	survival
Cc1nc2nncn2c(Nc2ccc(F)cc2)c1C	inactive: 77%
COc1cccc(-n2c(=O)c3sccc3n(Cc3cc(=O)n4cc(Cl)ccc4n3)c2=O)c1	inactive: 82%
CCC(=O)N1CCc2cc(S(=O)(=O)NCCC(=O)NCc3ccc(OC)cc3)ccc21	inactive: 92%
O=c1cc(CSc2nnc(COc3ccccc3)o2)c2ccccc2[nH]1	inactive: 107%
CCCNC(=O)c1c(NC(=O)c2ccccc2F)sc2c1CCCCC2	inactive: 79%
Cc1nc(-c2ccc(S(=O)(=O)Nc3ccc(OC(F)(F)F)cc3)cc2)co1	inactive: 78%
Cc1ccc(NC(=O)N2CCC(CN3CCCCCC3)CC2)c(Cl)c1	inactive: 84%
CC(C)c1ccc(N2C(=O)CSC23C(=O)N(Cc2ccccc2F)c2ccccc23)cc1 (stereo unspecified)	inactive: 79%
Cc1ccc(-c2nc(C(=O)Nc3cccc(C#N)c3)c3n2CCCCC3)cc1	inactive: 88%
Cc1cccc(C(=O)OCc2cc(=O)n3nc(C4CC4)sc3n2)c1	inactive: 97%
COc1ccc(-c2nc(SCC(=O)Nc3ccc4c(c3)OCO4)c(-c3ccc(F)cc3)[nH]2)cc1OC	inactive: 86%
O=C1c2ccccc2C(=O)C1(c1ccccc1)N1CCN(c2cccc(C(F)(F)F)c2)CC1	inactive: 96%
CCOc1ccccc1NC(=O)CCc1nc(-c2cccc(C)c2)no1	inactive: 73%
CC(C)Oc1ccc(CNS(=O)(=O)c2csc(C(N)=O)c2)cc1	inactive: 101%
Cc1ccc2c(c1)N(CC(=O)NCCCN1CCCCC1)C(=O)c1cccnc1O2	inactive: 68%
COc1ccccc1CNC(=O)CCCN1C(=O)CCn2nc(-c3cn(C)c4ccccc34)cc21	inactive: 89%
Cc1cc(NS(=O)(=O)c2ccc(NC(=S)NC(=O)c3ccccc3)cc2)no1	inactive: 79%
CC(C)C(=O)Nc1c(C(=O)N2CCN(c3ccccc3F)CC2)oc2ccccc12	inactive: 58%
Fc1ccc(C(c2nnc(-c3ccccc3)o2)N2CCN(c3ccccc3)CC2)c(Cl)c1 (stereo unspecified)	inactive: 84%
Cc1ccc(C(=O)Nc2cc3cc(Cl)ccc3oc2=O)cc1	inactive: 68%
CCCn1c(N2CCN(Cc3ccc(Cl)cc3)CC2)nc2ccccc21	inactive: 91%
Cc1ccc(-c2nc(CCNC(=O)C(=O)Nc3ccc(F)cc3F)cs2)cc1	inactive: 91%
CCOC(=O)c1ccc(NC(=O)C(=O)NCCc2ccc(OC)cc2)cc1	inactive: 74%

SMILES	survival
Cc1ccc(C)c(NC(=O)Cn2c(-c3nonc3N)nc3ccccc32)c1	inactive: 71%
CCC(CC)N1CCN(S(=O)(=O)c2ccc(NC(C)=O)cc2)CC1	inactive: 83%
COc1ccc2oc(=O)c(C(=O)N3CCN(c4cc(Cl)ccc4Cl)CC3)cc2c1	active: 48%
COc1ccccc1N1CCN(C(=O)c2cnn(C(C)(C)C)c2C2CCN(C(=O)OC(C)(C)C)CC2)CC1	inactive: 120%
CCOc1ccc2c(O)csc2c1	inactive: 90%
CCOc1ccc(S(=O)(=O)N(C(C)=O)c2ccc3oc(C)c(C(=O)OC)c3c2)cc1	inactive: 162%
COc1cc(Cl)c(C)cc1NC(=O)c1nn(-c2ccc(C)cc2)c(=O)n(C)c1=O	inactive: 55%
Cc1ccc(CSc2nc3ccncc3n2Cc2nc(-c3ccc(Cl)cc3)oc2C)cc1	inactive: 63%
CCOc1ccc(N2CC(NC(=O)c3cc4ccccc4o3)CC2=O)cc1 (stereo unspecified)	inactive: 94%
COC(=O)CSc1nc(-c2ccccc2)cc(C(F)(F)F)n1	inactive: 88%
COc1cccc(NC(=O)CSc2c(C)cnc3c2c(=O)n(C)c(=O)n3C)c1	inactive: 115%
CCCOC(=O)c1c(NC(=O)c2cc3nc(-c4ccc(OC)cc4)cc(C(F)(F)F)n3n2)sc2c1CCCC2	inactive: 119%
CCOC(=O)c1ccc(NC(=O)c2nsc3ccccc23)cc1	inactive: 60%
CN1CCc2nc3sc(C(=O)Nc4c(F)cccc4F)c(N)c3cc2C1	inactive: 153%
CCOc1ccc(NC(=O)Cn2c(=O)c(CNc3ccc(OC)cc3)cc3ccc(OC)cc32)cc1	inactive: 71%
Cc1ccc(-c2cnc(NCc3c(F)cccc3Cl)n2C)cc1	active: -4%
CCOC(=O)c1cc(S(=O)(=O)N2CCN(c3cc(Cl)ccc3C)CC2)[nH]n1	inactive: 109%
COc1ccc(C(=O)Nc2nc3nc(C)c(Cl)c(=O)n3[nH]2)cc1	inactive: 100%
COc1ccc(OC)c(NC(=O)C(NS(=O)(=O)c2ccc3c(c2)CCCC(=O)N3)C(C)C)c1 (stereo unspecified)	inactive: 78%
COc1cccc(NC(=O)c2nnn(Cc3cccc(C(F)(F)F)c3)c2N)c1	inactive: 67%
COc1ccc(NS(=O)(=O)c2ccc3c(c2)oc(=O)n3C)cc1Cl	inactive: 86%
COc1ccc(OC)c(S(=O)(=O)Nc2ccc3[nH]c(=O)[nH]c3c2)c1	inactive: 79%
